Data: PubChem BioAssay AID651820 (National Center for Advancing Translational Sciences (NCATS), 2012)
Where “and” joins values, the source holds several entries; their conditions need not be identical. Equal entries are not always repeated. The campaign covered roughly 340,000 compounds. About 12,000 (3.5%) were called active. Inconclusive results, whose numbers are uncertain, are shown with a selection of clear calls. Calls come from the whole dose curve; as a rule, active = well fitted inhibition curve with a large enough effect; inconclusive = small, poorly fitted or top-dose-only effect, or another doubt; inactive = no such curve, though single readings can be large or run the other way. Where the call is inconclusive, the potency comes from a doubtful curve fit.

Assay: qHTS Assay for Inhibitors of Hepatitis C Virus (HCV)
Conditions: Huh7.5.1 HCVcc-Cre (HCVcc is cell-culture hepatitis C virus) infection, luciferase reporter, 44 h; activity change, negative = inhibition: at 41.8 µM (top of the series)
In short: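 Whole-lifecycle infectious HCVcc-Cre system; cells 1,000/well, compound then virus (~0.5 moi) added 4 h after plating, 44 h culture. Luciferase read 15 sec following 15 min substrate incubation, room temp.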
% is set by controls: 0 for no effect and ±100 for the full control effect; potency is the fitted concentration of half-maximal effect; tags give direction and shape of the fitted curve.

Compound | Potency | activity change, negative = inhibition
O=S(=O)(c1cnc(Cl)c(Cl)c1)N1CCc2ccccc21 | inconclusive: 31.6 µM [inhibitor, single point] | 
COc1ccc2c(-c3ccccc3)cc(=S)[nH]c2c1 | inconclusive: 7.94 µM [inhibitor, partial curve] | 
CC(=O)c1ccc(N2CCN(C(=O)COc3ccc4c(c3)CCC4)CC2)cc1 | inconclusive: 11.2 µM [inhibitor, partial curve] | 
COc1ccc2c(-c3ccc(SC)cc3)c(-c3ccc(S(C)(=O)=O)cc3)sc2c1 | inconclusive: 3.16 µM [inhibitor, single point] | 
O=C(Nc1cccc(Cl)c1)Nc1ccc2nccnc2c1 | inconclusive: 22.4 µM [inhibitor, single point] | 
COc1cccc(/C=C/c2nc(C#N)c(NCC(C)C)o2)c1 | inconclusive: 3.16 µM [inhibitor, partial curve] | 
CCn1c2ccccc2c2cc(NC(=O)C/C(C)=N/NC(=O)c3ccccc3N)ccc21 | inconclusive: 35.5 µM [inhibitor, single point] | 
C=C1CC[C@@]2(O)[C@H]3Cc4ccc(O)c5c4[C@@]2(CCN3CC2CC2)[C@H]1O5 | inconclusive: 31.6 µM [inhibitor, single point] | 
C=C(C)COc1ccc(-c2n[nH]c(C)c2-c2ccccc2)c(O)c1 | inconclusive: 31.6 µM [inhibitor, single point] | 
COc1ccc(Br)cc1/C=C/C(=O)c1ccc(NC(C)=O)cc1 | inconclusive: 2.82 µM [inhibitor, full curve] | 
Cc1ccc(NC(=O)c2c([N+](=O)[O-])c(C(C)(C)C)nn2C)c(C)c1 | inconclusive: 3.16 µM [inhibitor, single point] | 
Cc1cccc(/C=N/NC(=O)NC2CCCCC2)c1 | inconclusive: 3.55 µM [inhibitor, full curve, poor fit] | 
Cc1[nH]c2ccccc2c1C(=O)CN1CCN(c2ccc(Cl)cc2)CC1 | inconclusive: 35.5 µM [inhibitor, partial curve] | 
COc1ccc(CNC(=O)C(=O)N2CCC3(CC2)OCCN3S(=O)(=O)c2ccc(C)cc2)cc1 | inconclusive: 15.8 µM [inhibitor, single point] | 
COc1cccc(-c2nn(-c3ccccc3)cc2CN(C)Cc2c(C)nc3ccccn23)c1 | inconclusive: 22.4 µM [inhibitor, single point] | 
O=C(Nc1nc(-c2ccccn2)cs1)C12CC3CC(CC(O)(C3)C1)C2 | inconclusive: 10 µM [inhibitor, single point] | 
CCN(CC)CCOc1c(Br)ccc2c1sc1nc3n(c(=O)c12)CCC3 | inconclusive: 25.1 µM [inhibitor, partial curve] | 
COc1ccc(C(=O)NCc2ccc3c(c2)OCO3)cc1S(=O)(=O)N1CCCC1 | inconclusive: 12.6 µM [inhibitor, partial curve] | 
COc1cc(CN2CCCC(C(=O)N3CCc4ccccc4C3)C2)cc(OC)c1OC (stereo not given) |  | inactive: -15.4%
NC(=S)N/N=C/c1cccc(O)c1O | inconclusive: 1.12 µM [inhibitor, full curve] | 
CC1CCCN(S(=O)(=O)c2ccc(NC(=O)[C@@H]3CCCN3C(=O)c3cccs3)cc2)C1 (stereo not given in full) | inconclusive: 3.55 µM [inhibitor, partial curve] | 
N#Cc1c(N2CCNCC2)nc(-c2ccco2)c2c1CCCC2 | inconclusive: 12.6 µM [inhibitor, partial curve, poor fit] | 

Compound | Potency | activity change, negative = inhibition
CCOc1ccc(CCNC(=O)c2ccccc2OCc2c(C)noc2C)cc1OCC | active: 7.08 µM | 
N#Cc1cc2c(nc1Cl)CCCC2 | inconclusive: 31.6 µM [inhibitor, partial curve, poor fit] | 
Cc1nn(-c2ccccc2)c(C)c1NC(=O)COC(=O)c1ccc(NC(=O)CC#N)cc1 |  | inactive: 0.508%
Cc1nc2ccccc2nc(C)c1=NOCc1cccc(F)c1 |  | inactive: -6.47%
COCCn1c(Cc2ccccc2)nnc1SCC(=O)Nc1oc(C)c2c(C)n[nH]c(=O)c12 |  | inactive: 9.53%
OC(c1cc(-c2cccc(Cl)c2)nc2ccccc12)C1CCCCN1 (stereo not given) | inconclusive: 31.6 µM [inhibitor, single point] | 
Cc1ccc(-c2nn(-c3cc(Cl)ccc3[N+](=O)[O-])c(=O)c3ccccc23)cc1 | inconclusive: 11.2 µM [inhibitor, partial curve, poor fit] | 
COC(=O)C1=C(C)N(c2cccc(OC)c2)C(=O)/C1=C\c1ccco1 | inconclusive: 7.94 µM [inhibitor, partial curve, poor fit] | 
O=C(NC1CCCCC1)C1CC(=O)N(c2ccc(Cl)cc2)C1 (stereo not given) |  | inactive: 11.4%
COc1ccccc1NC(=O)c1cc2n(n1)C(C(F)(F)F)CC(c1ccc3c(c1)OCO3)N2 (stereo not given) | inconclusive: 31.6 µM [inhibitor, single point] and inconclusive: 12.6 µM [inhibitor, partial curve] | 
COc1cccc2sc(Nc3nc(-c4ccncc4)cs3)nc12 | inconclusive: 12.6 µM [inhibitor, single point] | 
Cc1nn(-c2ccc(F)cc2)c(Cl)c1/C=C1\C(=O)Nc2ccccc21 | inconclusive: 12.6 µM [inhibitor, single point] | 
COc1ccccc1NC(=O)c1ccc(NC(=O)COC(=O)CC(NC(=O)c2ccccc2Cl)c2ccccc2)cc1 (stereo not given) | inconclusive: 15.8 µM [inhibitor, partial curve] | 
Cc1ccc2c(N)c(C(=O)c3ccccc3)sc2n1 | inconclusive: 31.6 µM [inhibitor, single point] | 
CC(C)(C)c1csc(NC(=O)CSC2=NCCS2)n1 | inconclusive: 3.55 µM [inhibitor, full curve] | 
COc1ccccc1N1CCN(C(=O)CCNS(=O)(=O)c2ccc(Br)s2)CC1 | inconclusive: 14.1 µM [inhibitor, single point] | 
CC1CCN(CCCCOc2ccc(F)cc2)CC1 | inconclusive: 31.6 µM [inhibitor, single point] | 
CCOC(=O)[C@@H]1[C@H]2COc3cc(OC)ccc3[C@H]2N2C(=O)N(c3ccc(C(F)(F)F)cc3)C(=O)[C@]12C | inconclusive: 0.501 µM [inhibitor, full curve, poor fit] | 
Cc1cc(/C=N/NC(=O)c2c(Br)cnn2C)c(C)n1-c1cccc(Br)c1 |  | inactive: 7.71%
CCOc1ccc2nc(SCC(=O)N3CCCCCC3)c(C#N)cc2c1 | active: 7.94 µM | 
CCCCN1C(=O)C(=Nc2cccc3cnccc23)c2ccccc21 | inconclusive: 0.562 µM [inhibitor, full curve, poor fit] | 
O=C(NCCC1=CCCCC1)c1cnc2n(c1=O)CCS2 |  | inactive: -36.5%

Compound | Potency | activity change, negative = inhibition
CC(C)n1cnc2c(Nc3cccc(Cl)c3)nc(N(CCO)CCCO)nc21 | inconclusive: 22.4 µM [inhibitor, single point] | 
O=C(Nc1cnccn1)c1ccc(F)cc1Cl |  | inactive: 13.5%
O=C(N/N=C/c1cn(-c2cccs2)nc1-c1ccccc1)c1ccc(O)cc1 | inconclusive: 31.6 µM [inhibitor, single point] | 
CC(=O)N1c2ccc(S(=O)(=O)N3CCCC(C(=O)NCc4ccccc4)C3)cc2CC1C (stereo not given) | inconclusive: 20 µM [inhibitor, single point] | 
Cn1c(CNC(=O)C2CCCCC2)cc2ccccc21 |  | inactive: 4.3%
CCOC(=O)C1(CC2CCCCO2)CCN(C(=O)Nc2ccc(C)c(C)c2)CC1 (stereo not given) | inconclusive: 15.8 µM [inhibitor, partial curve] | 
C=CCNC(=O)c1ccc(Cn2c(=S)[nH]c3cc4c(cc3c2=O)OCO4)cc1 | inconclusive: 5.01 µM [inhibitor, partial curve] | 
O=C(C[C@H]1C/C=C\CC[C@@H](Cc2ccc(F)cc2)C(=O)OC[C@H]2CCCN2C1=O)NCCO |  | inactive: 9.2%
COc1ccccc1/C=N/NC(=O)c1[nH]c(C)c(C(=O)N/N=C/c2ccccc2OC)c1C | inconclusive: 5.01 µM [inhibitor, partial curve] | 
Cn1ncc2c(NNC(=O)C3CCCCC3)ncnc21 |  | inactive: 15.7%
Brc1ccc(/C=N/Nc2ccccc2)cc1 |  | inactive: 4.98%
CCn1c(C)c(C(C)=O)c(N2CCN(C(c3ccccc3)c3ccccc3)CC2)nc1=S | active: 6.31 µM | 
CCn1c(CNC(=O)c2ccc3c(c2)OCO3)nnc1SCC(=O)Nc1cc(C)ccc1OC | inconclusive: 10 µM [inhibitor, partial curve] | 
COCCCNc1nc2c(-c3cccc(C(F)(F)F)c3)nnn2c2ccccc12 | inconclusive: 5.62 µM [inhibitor, single point] | 
Cc1ccc(-c2nc(CSCC(=O)NCC3CCCO3)c(C)o2)cc1 (stereo not given) |  | inactive: -24%
CN(C(=O)c1ccc2c(c1)OCO2)C1(C)CCS(=O)(=O)C1 (stereo not given) | inconclusive: 3.16 µM [inhibitor, single point] | 
CCOc1ccccc1Nc1nnc(SC(C)C(=O)Nc2nc(-c3ccccc3)cs2)s1 (stereo not given) | inconclusive: 2.24 µM [inhibitor, full curve] | 
COc1ccccc1CNC(=O)c1cccc(S(=O)(=O)N2CCN(c3ccc(F)cc3)CC2)c1 | active: 11.2 µM | 
CC1=CC(=O)C(C(C)C)=C/C1=C(\c1cc(C(C)C)c(OP(=O)(O)O)cc1C)c1ccccc1C(=O)O | inconclusive: 1.41 µM [inhibitor, full curve] | 
CCN(CC)C(=O)CSc1nnc(-c2cccs2)n1Cc1ccco1 | inconclusive: 0.501 µM [inhibitor, partial curve, poor fit] | 
Cn1cc(/C=C2\SC(=S)N(NC(=O)c3ccccc3Cl)C2=O)c2ccccc21 | inconclusive: 20 µM [inhibitor, single point] | 
